Assay results taken from the supplement of paper PMC4604168 (melanoma cell lines).
The list shows a part of the results. Many values rest on one well or one pass, so single values are uncertain.

What was measured:
Assay in all cases: cell count relative to DMSO control; melanoma cells; higher = more viable cells
Conditions in all cases: library dose: standard library concentration; 72 h
G361 = system: G361
IPC-298 = system: IPC-298
IST-MEL1 = system: IST-MEL1
LB2518-MEL = system: LB2518-MEL
LOXIMVI = system: LOXIMVI
MEL-HO = system: MEL-HO
MZ2-MEL = system: MZ2-MEL
MeWo = system: MeWo
RPMI7951 = system: RPMI7951
RVH-421 = system: RVH-421
SkMel28 = system: SkMel28
SkMel2 = system: SkMel2
SkMel30 = system: SkMel30
SkMel5 = system: SkMel5
UACC257 = system: UACC257
UACC62 = system: UACC62
WM115 = system: WM115
WM1716 = system: WM1716
WM1745 = system: WM1745
WM3526 = system: WM3526
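Note: cells treated in 1,536-well plates, then fixed and DAPI-stained, with nuclei counted from automated high-throughput microscope images.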

Row | SMILES | cell count (G361) | cell count (IPC-298) | cell count (IST-MEL1) | cell count (LB2518-MEL) | cell count (LOXIMVI) | cell count (MEL-HO) | cell count (MZ2-MEL) | cell count (MeWo) | cell count (RPMI7951) | cell count (RVH-421) | cell count (SkMel28) | cell count (SkMel2) | cell count (SkMel30) | cell count (SkMel5) | cell count (UACC257) | cell count (UACC62) | cell count (WM115) | cell count (WM1716) | cell count (WM1745) | cell count (WM3526)
1 | Cc1cc(Nc2cc(N3CCN(C)CC3)nc(Sc3ccc(NC(=O)C4CC4)cc3)n2)n[nH]1 [Tozasertib] + COc1cc([C@@H]2c3cc4c(cc3[C@@H](O[C@@H]3O[C@@H]5CO[C@@H](C)O[C@H]5[C@H](O)[C@H]3O)[C@H]3COC(=O)[C@H]23)OCO4)cc(OC)c1O [etoposide] (first compound 0.03 µM, partner dose 0.1 µM) | 84.9% | 60.9% | 105% | 70.3% | 70.6% | 85.1% | 43.6% | 63.6% | 80.8% | 67.2% | 45.1% | 58.9% | 88.8% | 55.7% | 88.2% | 52.9% | 42.8% | 59.5% | 56.6% | 77%
2 | N#CC[C@H](C1CCCC1)n1cc(-c2ncnc3[nH]ccc23)cn1 [ruxolitinib] + Nc1ccn([C@@H]2O[C@H](CO)[C@@H](O)C2(F)F)c(=O)n1 [gemcitabine] (first compound 5 µM, partner dose 0.002 µM) | 39.8% | 51.7% | 34% | 87.6% | 80.7% | 63.1% | 90% | 41% | 62.5% | 72.1% | 103% | 104% | 106% | 77.7% | 83.7% | 117% | 74.4% | 48.7% | 45.8% | 90.3%
3 | N#CC[C@H](C1CCCC1)n1cc(-c2ncnc3[nH]ccc23)cn1 [ruxolitinib] + C[C@]1(O)C[C@@H](c2nc(-c3ccc4ccc(-c5ccccc5)nc4c3)c3c(N)nccn32)C1 [OSI906] (first compound 5 µM, partner dose 2 µM) | 62.3% | 80.9% | 94.4% | 121% | 89.8% | 71.7% | 96.2% | 68.4% | 74.1% | 96.6% | 116% | 91.1% | 89% | 64.9% | 92.3% | 104% | 116% | 85.7% | 72.5% | 77.9%
4 | CC[C@]1(O)C[C@H]2CN(CCc3c([nH]c4ccccc34)[C@@](C(=O)OC)(c3cc4c(cc3OC)N(C=O)[C@H]3[C@@](O)(C(=O)OC)[C@H](OC(C)=O)[C@]5(CC)C=CCN6CC[C@]43[C@@H]65)C2)C1 [vincristine] + C[C@]1(c2nc3c(C(N)=O)cccc3[nH]2)CCCN1 [Veliparib] (first compound 0.0005 µM, partner dose 7 µM) | 37.6% | 78.2% | 51.7% | 70.4% | 64.6% | 63.3% | 33.2% | 24.7% | 16.8% | 34.2% | 19.2% | 24.3% | 55.2% | 36.4% | 53.6% | 52.6% | 36.2% | 30.9% | 50.3% | 44.4%
5 | N#CC[C@H](C1CCCC1)n1cc(-c2ncnc3[nH]ccc23)cn1 [ruxolitinib] + CC(C)C[C@H](NC(=O)[C@H](Cc1ccccc1)NC(=O)c1cnccn1)B(O)O [Bortezomib] (first compound 5 µM, partner dose 0.005 µM) | 0.403% | 9.89% | 12.1% | 2.08% | 17.3% | 26% | 3.14% | 20.5% | 5.97% | 6.29% | 28% | 47.9% | 32.3% | 29.8% | 75.6% | 60.6% | 26.8% | 20.9% | 15.4% | 26.2%
6 | Cc1cc(Nc2cc(N3CCN(C)CC3)nc(Sc3ccc(NC(=O)C4CC4)cc3)n2)n[nH]1 [Tozasertib] + CC(=O)O[C@@]12CO[C@@H]1C[C@H](O)[C@@]1(C)C(=O)[C@H](O)C3=C(C)[C@@H](OC(=O)[C@H](O)[C@@H](NC(=O)OC(C)(C)C)c4ccccc4)C[C@@](O)([C@@H](OC(=O)c4ccccc4)[C@H]21)C3(C)C [Docetaxel] (first compound 0.03 µM, partner dose 0.0005 µM) | 13% | 42.3% | 50.6% | 54.4% | 48.8% | 42% | 44.8% | 26.5% | 29.7% | 62.9% | 17.2% | 25.9% | 45.4% | 28.6% | 50.2% | 47.2% | 50.6% | 39% | 53.2% | 37.3%
7 | Cc1cc(Nc2cc(N3CCN(C)CC3)nc(Sc3ccc(NC(=O)C4CC4)cc3)n2)n[nH]1 [Tozasertib] + CN(C)S(=O)(=O)c1ccc2c(c1)/C(=C/c1cc3c([nH]1)CCCC3)C(=O)N2 [SU6656] (first compound 0.03 µM, partner dose 2 µM) | 65.6% | 88.7% | 77.1% | 63.8% | 82.8% | 81.8% | 67.5% | 82.1% | 45.9% | 69.8% | 45.9% | 68.4% | 101% | 67.4% | 86% | 78.7% | 39.5% | 62.6% | 49.4% | 75%
8 | Cc1cc(Nc2cc(N3CCN(C)CC3)nc(Sc3ccc(NC(=O)C4CC4)cc3)n2)n[nH]1 [Tozasertib] + CN(c1ncccc1CNc1nc(Nc2ccc3c(c2)CC(=O)N3)ncc1C(F)(F)F)S(C)(=O)=O [PF562271] (first compound 0.03 µM, partner dose 0.4 µM) | 75% | 78.1% | 72.9% | 71.7% | 82% | 82.2% | 47.2% | 99.5% | 43.4% | 19.6% | 50.6% | 91.5% | 110% | 69.2% | 81.5% | 63.6% | 53.4% | 76.4% | 45% | 140%
9 | N#CC[C@H](C1CCCC1)n1cc(-c2ncnc3[nH]ccc23)cn1 [ruxolitinib] + O=C(O)c1ccc2c(c1)nc(Nc1cccc(Cl)c1)c1ccncc12 [CX4945] (first compound 5 µM, partner dose 2 µM) | 84.5% | 84.1% | 83.2% | 113% | 67.7% | 71.9% | 89.6% | 112% | 96.8% | 114% | 102% | 77.5% | 87.5% | 94.5% | 99.7% | 105% | 104% | 95.3% | 81.6% | 83.3%
10 | Cc1cc(Nc2cc(N3CCN(C)CC3)nc(Sc3ccc(NC(=O)C4CC4)cc3)n2)n[nH]1 [Tozasertib] + CCCCCCCCc1ccc(CCC(N)(CO)CO)cc1 [fingolimod] (first compound 0.03 µM, partner dose 10 µM) | 2.19% | 61.8% | 23.2% | 0.459% | 36.6% | 42.1% | 45.1% | 51.3% | 0.832% | 29.1% | 3.8% | 1% | 19% | 67.1% | 85.5% | 20.1% | 16.8% | 56% | 40.4% | 59.3%
11 | Cc1cc(Nc2cc(N3CCN(C)CC3)nc(Sc3ccc(NC(=O)C4CC4)cc3)n2)n[nH]1 [Tozasertib] + Cc1cn(-c2cc(NC(=O)c3ccc(C)c(Nc4nccc(-c5cccnc5)n4)c3)cc(C(F)(F)F)c2)cn1 [nilotinib] (first compound 0.03 µM, partner dose 1 µM) | 75.4% | 95.3% | 88.4% | 71.4% | 96.7% | 89% | 69.2% | 82.9% | 95.6% | 83.6% | 58.4% | 89.3% | 107% | 64.8% | 101% | 73.1% | 75% | 87.4% | 62.9% | 75.9%
12 | CC[C@]1(O)C[C@H]2CN(CCc3c([nH]c4ccccc34)[C@@](C(=O)OC)(c3cc4c(cc3OC)N(C=O)[C@H]3[C@@](O)(C(=O)OC)[C@H](OC(C)=O)[C@]5(CC)C=CCN6CC[C@]43[C@@H]65)C2)C1 [vincristine] + COc1ccc(Cl)c(Nc2nc3ccccc3nc2NS(=O)(=O)c2cccc(NC(=O)C(C)(C)N)c2)c1 [XL147] (first compound 0.0005 µM, partner dose 4 µM) | 73.2% | 84.9% | 62.1% | 80.7% | 83.6% | 76.1% | 66.6% | 56.7% | 48% | 68% | 53.5% | 68.1% | 61.7% | 57.2% | 80.4% | 68.5% | 49.8% | 47.1% | 66.9% | 56.9%
13 | Cc1cc(Nc2cc(N3CCN(C)CC3)nc(Sc3ccc(NC(=O)C4CC4)cc3)n2)n[nH]1 [Tozasertib] + O=C(O)c1ccc2c(c1)nc(Nc1cccc(Cl)c1)c1ccncc12 [CX4945] (first compound 0.03 µM, partner dose 2 µM) | 51% | 63.3% | 74.2% | 78.3% | 34.3% | 42.7% | 27.4% | 57.9% | 52.5% | 69.7% | 40% | 65.1% | 76% | 69.8% | 88.4% | 60.6% | 48.1% | 70.8% | 30.6% | 59.4%
14 | Cc1cc(Nc2cc(N3CCN(C)CC3)nc(Sc3ccc(NC(=O)C4CC4)cc3)n2)n[nH]1 [Tozasertib] + OCCn1cc(-c2cnc3nnn(Cc4ccc5ncccc5c4)c3n2)cn1 [PF04217903] (first compound 0.03 µM, partner dose 5 µM) | 75.5% | 85.3% | 154% | 58% | 59.7% | 87.5% | 71.5% | 69.4% | 45% | 12% | 63.8% | 80% | 82% | 72.8% | 89.8% | 78.8% | 43.5% | 57.5% | 36.4% | 80.2%
15 | CC[C@]1(O)C[C@H]2CN(CCc3c([nH]c4ccccc34)[C@@](C(=O)OC)(c3cc4c(cc3OC)N(C=O)[C@H]3[C@@](O)(C(=O)OC)[C@H](OC(C)=O)[C@]5(CC)C=CCN6CC[C@]43[C@@H]65)C2)C1 [vincristine] + CNC(=O)c1cc(Oc2ccc(NC(=O)Nc3ccc(Cl)c(C(F)(F)F)c3)cc2)ccn1 [sorafenib] (first compound 0.0005 µM, partner dose 2 µM) | 58.2% | 81.3% | 66.5% | 74.4% | 82.4% | 84.3% | 36.3% | 39% | 19.5% | 51.4% | 28.6% | 16.3% | 57.5% | 48.3% | 66.1% | 53.4% | 35.8% | 43% | 56.4% | 58.6%
